# Results: paper PMC12820563
# This is one part of the list. The list includes weakly bound sequences.
# Target: T1, MBP-FoxP3dN (UniProt Q99JB6)
# T1 sequence: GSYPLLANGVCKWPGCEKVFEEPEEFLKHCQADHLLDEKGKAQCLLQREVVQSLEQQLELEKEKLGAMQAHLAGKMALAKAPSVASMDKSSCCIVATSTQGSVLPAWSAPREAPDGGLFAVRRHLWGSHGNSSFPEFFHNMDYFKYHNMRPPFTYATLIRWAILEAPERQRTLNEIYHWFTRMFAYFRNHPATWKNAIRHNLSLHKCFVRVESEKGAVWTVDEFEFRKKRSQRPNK
# Test: PD-seq (MBP pull-down with sequencing)
# Settings: 20 mM Tris-HCl pH 7.5, 100 mM NaCl, 1.5 mM MgCl2, 0.4 uM protein, 0.1 uM dsDNA library, 30 min, room temperature, amylose pull-down; high values mean tight binding; double strand, one strand shown
row,Sequence,binding signal (RPM ratio (pull-down/input))
1,GATGATTGTTCTCCCAGCTGATGAATTGGTGACTTCGAGTAAACAAATTTTCCTAATCTTTCTGTTCAAGCGCCATCTAC,0.689
2,GATGATTGTTCTCCCAGCTGATGAATTAATAGATTCGAGTAAACAAATTTTCCTAATCTTTCTGTTCAAGCGCCATCTAC,0.317
3,GATGATTGTTCTCCCAGCTGATGAATTGGCTGGGTCGAGTAAACAAATTTTCCTAATCTTTCTGTTCAAGCGCCATCTAC,0.34
4,GATGATTGTTCTCCCAGCTGATGAATTCGTTACATCGAGTAAACAAATTTTCCTAATCTTTCTGTTCAAGCGCCATCTAC,0.657
5,GATGATTGTTCTCCCAGCTGATGAATTCGGATATTCGAGTAAACAAATTTTCCTAATCTTTCTGTTCAAGCGCCATCTAC,0.752
6,GATGATTGTTCTCCCAGCTGATGAATTTCCTAGGTCGAGTAAACAAATTTTCCTAATCTTTCTGTTCAAGCGCCATCTAC,0.191
7,GATGATTGTTCTCCCAGCTGATGAATTCGGGAAGTCGAGTAAACAAATTTTCCTAATCTTTCTGTTCAAGCGCCATCTAC,0.172
8,GATGATTGTTCTCCCAGCTGATGAATTTAATAAGTCGAGTAAACAAATTTTCCTAATCTTTCTGTTCAAGCGCCATCTAC,0.357
9,GATGATTGTTCTCCCAGCTGATGAATTTCCCAATTCGAGTAAACAAATTTTCCTAATCTTTCTGTTCAAGCGCCATCTAC,0.231
10,GATGATTGTTCTCCCAGCTGATGAATTGAAAGCCTCGAGTAAACAAATTTTCCTAATCTTTCTGTTCAAGCGCCATCTAC,0.364
11,GATGATTGTTCTCCCAGCTGATGAATTCAGGTGTTCGAGTAAACAAATTTTCCTAATCTTTCTGTTCAAGCGCCATCTAC,0.709
12,GATGATTGTTCTCCCAGCTGATGAATTAGCTGACTCGAGTAAACAAATTTTCCTAATCTTTCTGTTCAAGCGCCATCTAC,1.43
13,GATGATTGTTCTCCCAGCTGATGAATTTTCGACATCGAGTAAACAAATTTTCCTAATCTTTCTGTTCAAGCGCCATCTAC,0.532
14,GATGATTGTTCTCCCAGCTGATGAATTTCAGTAGTCGAGTAAACAAATTTTCCTAATCTTTCTGTTCAAGCGCCATCTAC,0.389
15,GATGATTGTTCTCCCAGCTGATGAATTAGGGTATTCGAGTAAACAAATTTTCCTAATCTTTCTGTTCAAGCGCCATCTAC,0.993
16,GATGATTGTTCTCCCAGCTGATGAATTCTTCACTTCGAGTAAACAAATTTTCCTAATCTTTCTGTTCAAGCGCCATCTAC,0.259
17,GATGATTGTTCTCCCAGCTGATGAATTGGTAGTGTCGAGTAAACAAATTTTCCTAATCTTTCTGTTCAAGCGCCATCTAC,1.68
18,GATGATTGTTCTCCCAGCTGATGAATTTAGGAGATCGAGTAAACAAATTTTCCTAATCTTTCTGTTCAAGCGCCATCTAC,0.289
19,GATGATTGTTCTCCCAGCTGATGAATTGGAAGCGTCGAGTAAACAAATTTTCCTAATCTTTCTGTTCAAGCGCCATCTAC,0.408
20,GATGATTGTTCTCCCAGCTGATGAATTATTTTGTTCGAGTAAACAAATTTTCCTAATCTTTCTGTTCAAGCGCCATCTAC,1.15

row,Sequence,binding signal (RPM ratio (pull-down/input))
1,GATGATTGTTCTCCCAGCTGATGAATTCCTCTACTCGAGTAAACAAATTTTCCTAATCTTTCTGTTCAAGCGCCATCTAC,0.304
2,GATGATTGTTCTCCCAGCTGATGAATTTACTGACTCGAGTAAACAAATTTTCCTAATCTTTCTGTTCAAGCGCCATCTAC,0.874
3,GATGATTGTTCTCCCAGCTGATGAATTGGTTGTTTCGAGTAAACAAATTTTCCTAATCTTTCTGTTCAAGCGCCATCTAC,5.26
4,GATGATTGTTCTCCCAGCTGATGAATTGCCAAGGTCGAGTAAACAAATTTTCCTAATCTTTCTGTTCAAGCGCCATCTAC,0.337
5,GATGATTGTTCTCCCAGCTGATGAATTGTTATCTTCGAGTAAACAAATTTTCCTAATCTTTCTGTTCAAGCGCCATCTAC,2.82
6,GATGATTGTTCTCCCAGCTGATGAATTCTCTTGTTCGAGTAAACAAATTTTCCTAATCTTTCTGTTCAAGCGCCATCTAC,0.459
7,GATGATTGTTCTCCCAGCTGATGAATTCCTTTTCTCGAGTAAACAAATTTTCCTAATCTTTCTGTTCAAGCGCCATCTAC,0.368
8,GATGATTGTTCTCCCAGCTGATGAATTACGTCACTCGAGTAAACAAATTTTCCTAATCTTTCTGTTCAAGCGCCATCTAC,1.34
9,GATGATTGTTCTCCCAGCTGATGAATTAGGTGACTCGAGTAAACAAATTTTCCTAATCTTTCTGTTCAAGCGCCATCTAC,0.899
10,GATGATTGTTCTCCCAGCTGATGAATTGTGTAACTCGAGTAAACAAATTTTCCTAATCTTTCTGTTCAAGCGCCATCTAC,3.78
11,GATGATTGTTCTCCCAGCTGATGAATTACACATTTCGAGTAAACAAATTTTCCTAATCTTTCTGTTCAAGCGCCATCTAC,0.832
12,GATGATTGTTCTCCCAGCTGATGAATTTACTAGTTCGAGTAAACAAATTTTCCTAATCTTTCTGTTCAAGCGCCATCTAC,1.09
13,GATGATTGTTCTCCCAGCTGATGAATTAGCTTCGTCGAGTAAACAAATTTTCCTAATCTTTCTGTTCAAGCGCCATCTAC,0.56
14,GATGATTGTTCTCCCAGCTGATGAATTAAACCCTTCGAGTAAACAAATTTTCCTAATCTTTCTGTTCAAGCGCCATCTAC,0.267
15,GATGATTGTTCTCCCAGCTGATGAATTTCGAACGTCGAGTAAACAAATTTTCCTAATCTTTCTGTTCAAGCGCCATCTAC,0.337
16,GATGATTGTTCTCCCAGCTGATGAATTACGTGGCTCGAGTAAACAAATTTTCCTAATCTTTCTGTTCAAGCGCCATCTAC,0.68
17,GATGATTGTTCTCCCAGCTGATGAATTCAGTGCGTCGAGTAAACAAATTTTCCTAATCTTTCTGTTCAAGCGCCATCTAC,0.868
18,GATGATTGTTCTCCCAGCTGATGAATTTACGAAATCGAGTAAACAAATTTTCCTAATCTTTCTGTTCAAGCGCCATCTAC,0.491
19,GATGATTGTTCTCCCAGCTGATGAATTCCTGACTTCGAGTAAACAAATTTTCCTAATCTTTCTGTTCAAGCGCCATCTAC,0.34
20,GATGATTGTTCTCCCAGCTGATGAATTTACCTGCTCGAGTAAACAAATTTTCCTAATCTTTCTGTTCAAGCGCCATCTAC,0.4
